Here are results for ten variants from the supplement of paper PMC12217912.

Some of the results follow. Sequences were assembled here from the parent chain. Inactive controls read about 0.05.

B1: TEV protease; numbered along this chain (parent)
chain: MGESLFKGPRDYNPISSSICHLTNESDGHTTSLYGIGFGPFIITNKHLFRRNNGTLVVQSLHGVFKVKDTTTLQQHLVDGRDMIIIRMPKDFPPFPQKLKFREPQREERICLVTTNFQTKSMSSMVSDTSCTFPSGDGIFWKHWIQTKDGQCGSPLVSTRDGFIVGIHSASNFTNTNNYFTSVPKNFMELLTNQEAQQWVSGWRLNADSVLWGGHKVFMVKPEEPFQPVKEATQL

Variants of B1 are the subject of this assay. The assay is described as follows: raw area under fraction-flipped curve 0-4 h after induction (AUC4h, not background-subtracted), DNA-recorder readout of cleavage of the substrate (dimensionless); higher = more cleavage of the substrate by the protease variant. The conditions noted are these: temperature: 34 °C; time window: 0-4 h after rhamnose induction. The protocol:
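In vivo DNA recorder in E. coli TOP10(DE3) ΔrhaA at 34 °C. Each TEVp single-site mutant (parent TEVp 0) is paired with a single-site variant of the 7-mer TEVs (canonical ENLYFQ|S). The substrate sits between flexible linkers in a Bxb1-sfGFP-TEVs-SsrA fusion, so cleavage stabilises Bxb1 and speeds flipping of a recombination array, read by NGS. The value is the raw area under the fraction-flipped curve over 0-4 h after rhamnose induction (AUC4h), with ≥20 reads per time point. It is not background-subtracted; inactive controls average about 0.047.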
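Further: Bxb1 expression induced with 0.2% (w/v) L-rhamnose at OD600 near 0.5, cultures sampled hourly, flipped fraction per protease–substrate barcode pair counted by paired-end Illumina sequencing.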

On to MGESLFKGPRDYNPISSSICHLTNESDGHTMSLYGIGFGPFIITNKHLFRRNNGTLVVQSLHGVFKVKDTTTLQQHLVDGRDMIIIRMPKDFPPFPQKLKFREPQREERICLVTTNFQTKSMSSMVSDTSCTFPSGDGIFWKHWIQTKDGQCGSPLVSTRDGFIVGIHSASNFTNTNNYFTSVPKNFMELLTNQEAQQWVSGWRLNADSVLWGGHKVFMVKPEEPFQPVKEATQL [T31M], for which the “area with substrate ENAYFQS” value stood at 0.0481, the “area with substrate ENCYFQS” value was found to be 0.0663, the “area with substrate ENDYFQS” value worked out at 0.0625 and the “area with substrate ENEYFQS” value turned out to be 0.0712. Further, the “area with substrate ENFYFQS” value turned out to be 0.0684, the “area with substrate ENGYFQS” value was found to be 0.0612, the “area with substrate ENHYFQS” value was found to be 0.0598 and the “area with substrate ENKYFQS” value is 0.0503. In addition, the “area with substrate ENNYFQS” value stood at 0.062, the “area with substrate ENPYFQS” value came to 0.063, the “area with substrate ENQYFQS” value is 0.0427 and the “area with substrate ENSYFQS” value turned out to be 0.0587. For the same variant, the “area with substrate ENTYFQS” value was determined as 0.0684, the “area with substrate ENVYFQS” value amounted to 0.0806 and the “area with substrate ENYYFQS” value amounted to 0.0591.

Consider MGESLFKGPRDYNPISSSICHLTNESDGHTTSLYGIGFGPFIITNKHLLRRNNGTLVVQSLHGVFKVKDTTTLQQHLVDGRDMIIIRMPKDFPPFPQKLKFREPQREERICLVTTNFQTKSMSSMVSDTSCTFPSGDGIFWKHWIQTKDGQCGSPLVSTRDGFIVGIHSASNFTNTNNYFTSVPKNFMELLTNQEAQQWVSGWRLNADSVLWGGHKVFMVKPEEPFQPVKEATQL [F49L], for which the “area with substrate ENAYFQS” value worked out at 0.0547, the “area with substrate ENCYFQS” value amounted to 0.0658, the “area with substrate ENDYFQS” value was found to be 0.0382 and the “area with substrate ENKYFQS” value came to 0.0623. Moreover, the “area with substrate ENPYFQS” value turned out to be 0.0583, the “area with substrate ENQYFQS” value was 0.0462, the “area with substrate ENRYFQS” value came to 0.0586 and the “area with substrate ENSYFQS” value came to 0.0583.

As for MGESLFKGPRDYNPISSSICHLTNESDGHTTSLYGIGFGPFIITNGHLFRRNNGTLVVQSLHGVFKVKDTTTLQQHLVDGRDMIIIRMPKDFPPFPQKLKFREPQREERICLVTTNFQTKSMSSMVSDTSCTFPSGDGIFWKHWIQTKDGQCGSPLVSTRDGFIVGIHSASNFTNTNNYFTSVPKNFMELLTNQEAQQWVSGWRLNADSVLWGGHKVFMVKPEEPFQPVKEATQL [K46G], the “area with substrate ENAYFQS” value turned out to be 0.0622, the “area with substrate ENCYFQS” value worked out at 0.0596, the “area with substrate ENDYFQS” value is 0.0566 and the “area with substrate ENEYFQS” value amounted to 0.0596. Besides, the “area with substrate ENFYFQS” value is 0.0765, the “area with substrate ENGYFQS” value turned out to be 0.0648, the “area with substrate ENHYFQS” value was determined as 0.0536 and the “area with substrate ENIYFQS” value turned out to be 0.0874. The “area with substrate ENKYFQS” value was found to be 0.0409, the “area with substrate ENMYFQS” value is 0.0678, the “area with substrate ENNYFQS” value was determined as 0.0662 and the “area with substrate ENPYFQS” value is 0.055. For the same variant, the “area with substrate ENQYFQS” value was 0.0593, the “area with substrate ENRYFQS” value was 0.0458, the “area with substrate ENTYFQS” value came to 0.0596 and the “area with substrate ENVYFQS” value stood at 0.064. Also, the “area with substrate ENWYFQS” value stood at 0.0339.

Regarding MGESLFKGPRDYNPISSSICHLTNESDGHTTSLYGIGFGPEIITNKHLFRRNNGTLVVQSLHGVFKVKDTTTLQQHLVDGRDMIIIRMPKDFPPFPQKLKFREPQREERICLVTTNFQTKSMSSMVSDTSCTFPSGDGIFWKHWIQTKDGQCGSPLVSTRDGFIVGIHSASNFTNTNNYFTSVPKNFMELLTNQEAQQWVSGWRLNADSVLWGGHKVFMVKPEEPFQPVKEATQL [F41E], the “area with substrate ENAYFQS” value stood at 0.0494, the “area with substrate ENCYFQS” value came out at 0.0276, the “area with substrate ENDYFQS” value turned out to be 0.0584 and the “area with substrate ENEYFQS” value was 0.0661. In addition, the “area with substrate ENFYFQS” value stood at 0.0488, the “area with substrate ENGYFQS” value amounted to 0.0501, the “area with substrate ENHYFQS” value was 0.0441 and the “area with substrate ENIYFQS” value worked out at 0.0544. Also, the “area with substrate ENMYFQS” value was 0.0483, the “area with substrate ENNYFQS” value stood at 0.0467, the “area with substrate ENRYFQS” value stood at 0.0463 and the “area with substrate ENSYFQS” value stood at 0.0517. The “area with substrate ENTYFQS” value worked out at 0.0493, the “area with substrate ENVYFQS” value was determined as 0.0482 and the “area with substrate ENYYFQS” value was 0.0434.

Turning to MGESLFKGPRDYNPISSSICHLTNESDGHTTSLYGIGFGPYIITNKHLFRRNNGTLVVQSLHGVFKVKDTTTLQQHLVDGRDMIIIRMPKDFPPFPQKLKFREPQREERICLVTTNFQTKSMSSMVSDTSCTFPSGDGIFWKHWIQTKDGQCGSPLVSTRDGFIVGIHSASNFTNTNNYFTSVPKNFMELLTNQEAQQWVSGWRLNADSVLWGGHKVFMVKPEEPFQPVKEATQL [F41Y], the “area with substrate ENAYFQS” value came to 0.0647, the “area with substrate ENCYFQS” value came to 0.0794, the “area with substrate ENDYFQS” value was 0.0704 and the “area with substrate ENEYFQS” value is 0.0493. Besides, the “area with substrate ENFYFQS” value is 0.0639, the “area with substrate ENGYFQS” value came to 0.0576, the “area with substrate ENIYFQS” value came out at 0.108 and the “area with substrate ENMYFQS” value stood at 0.123. For the same variant, the “area with substrate ENNYFQS” value was found to be 0.0569, the “area with substrate ENPYFQS” value was 0.055, the “area with substrate ENQYFQS” value was 0.0648 and the “area with substrate ENRYFQS” value amounted to 0.0549. Also, the “area with substrate ENSYFQS” value stood at 0.0541, the “area with substrate ENTYFQS” value was 0.07, the “area with substrate ENVYFQS” value was found to be 0.0743 and the “area with substrate ENWYFQS” value worked out at 0.0764. For the same variant, the “area with substrate ENYYFQS” value is 0.0693.

In the case of MGESLFKGPRDYNPISSSICHLTNESDGHTTSLYGIGFGPMIITNKHLFRRNNGTLVVQSLHGVFKVKDTTTLQQHLVDGRDMIIIRMPKDFPPFPQKLKFREPQREERICLVTTNFQTKSMSSMVSDTSCTFPSGDGIFWKHWIQTKDGQCGSPLVSTRDGFIVGIHSASNFTNTNNYFTSVPKNFMELLTNQEAQQWVSGWRLNADSVLWGGHKVFMVKPEEPFQPVKEATQL [F41M], the “area with substrate ENAYFQS” value stood at 0.059, the “area with substrate ENCYFQS” value was determined as 0.0653, the “area with substrate ENDYFQS” value was 0.055 and the “area with substrate ENEYFQS” value is 0.0557. For the same variant, the “area with substrate ENFYFQS” value turned out to be 0.0783, the “area with substrate ENHYFQS” value amounted to 0.0768, the “area with substrate ENIYFQS” value came out at 0.112 and the “area with substrate ENKYFQS” value came out at 0.0575. In addition, the “area with substrate ENMYFQS” value is 0.0775, the “area with substrate ENNYFQS” value was found to be 0.0373, the “area with substrate ENQYFQS” value was determined as 0.0622 and the “area with substrate ENRYFQS” value is 0.0634. The “area with substrate ENSYFQS” value was 0.0574, the “area with substrate ENTYFQS” value came to 0.0687 and the “area with substrate ENVYFQS” value worked out at 0.0651.

With MGESLFKGPRDYNPISSSICHLTNESDGHTTSLYGGGFGPFIITNKHLFRRNNGTLVVQSLHGVFKVKDTTTLQQHLVDGRDMIIIRMPKDFPPFPQKLKFREPQREERICLVTTNFQTKSMSSMVSDTSCTFPSGDGIFWKHWIQTKDGQCGSPLVSTRDGFIVGIHSASNFTNTNNYFTSVPKNFMELLTNQEAQQWVSGWRLNADSVLWGGHKVFMVKPEEPFQPVKEATQL [I36G], the “area with substrate ENAYFQS” value was found to be 0.045, the “area with substrate ENCYFQS” value came out at 0.0496, the “area with substrate ENDYFQS” value is 0.0517 and the “area with substrate ENEYFQS” value was found to be 0.046. The “area with substrate ENFYFQS” value came to 0, the “area with substrate ENNYFQS” value came out at 0.0412, the “area with substrate ENPYFQS” value amounted to 0.0333 and the “area with substrate ENSYFQS” value is 0.0316. Besides, the “area with substrate ENVYFQS” value turned out to be 0.0368 and the “area with substrate ENYYFQS” value is 0.0357.

As for MGESLFKGPRDYNPISSSICHLTNESDGHTTSAYGIGFGPFIITNKHLFRRNNGTLVVQSLHGVFKVKDTTTLQQHLVDGRDMIIIRMPKDFPPFPQKLKFREPQREERICLVTTNFQTKSMSSMVSDTSCTFPSGDGIFWKHWIQTKDGQCGSPLVSTRDGFIVGIHSASNFTNTNNYFTSVPKNFMELLTNQEAQQWVSGWRLNADSVLWGGHKVFMVKPEEPFQPVKEATQL [L33A], the “area with substrate ENAYFQS” value turned out to be 0.0665, the “area with substrate ENDYFQS” value is 0.0571, the “area with substrate ENEYFQS” value was 0.0602 and the “area with substrate ENGYFQS” value worked out at 0.0698. The “area with substrate ENIYFQS” value was found to be 0.0937, the “area with substrate ENKYFQS” value was 0.0671, the “area with substrate ENRYFQS” value was found to be 0.0276 and the “area with substrate ENSYFQS” value was found to be 0.063. In addition, the “area with substrate ENVYFQS” value worked out at 0.0677 and the “area with substrate ENWYFQS” value was 0.122.

For MGESLFKGPRDYNPISSSICHLTNESDGHTTSLYHIGFGPFIITNKHLFRRNNGTLVVQSLHGVFKVKDTTTLQQHLVDGRDMIIIRMPKDFPPFPQKLKFREPQREERICLVTTNFQTKSMSSMVSDTSCTFPSGDGIFWKHWIQTKDGQCGSPLVSTRDGFIVGIHSASNFTNTNNYFTSVPKNFMELLTNQEAQQWVSGWRLNADSVLWGGHKVFMVKPEEPFQPVKEATQL [G35H], the “area with substrate ENAYFQS” value is 0.0331, the “area with substrate ENEYFQS” value came to 0.0445, the “area with substrate ENFYFQS” value was determined as 0.047 and the “area with substrate ENTYFQS” value was 0.0375.

Take MGESLFKGPRDYNPISSSICHLTNESDGHTTSLYYIGFGPFIITNKHLFRRNNGTLVVQSLHGVFKVKDTTTLQQHLVDGRDMIIIRMPKDFPPFPQKLKFREPQREERICLVTTNFQTKSMSSMVSDTSCTFPSGDGIFWKHWIQTKDGQCGSPLVSTRDGFIVGIHSASNFTNTNNYFTSVPKNFMELLTNQEAQQWVSGWRLNADSVLWGGHKVFMVKPEEPFQPVKEATQL [G35Y]: the “area with substrate ENAYFQS” value is 0.0447, the “area with substrate ENIYFQS” value came out at 0.0359, the “area with substrate ENQYFQS” value amounted to 0.0598 and the “area with substrate ENSYFQS” value amounted to 0.0377. The “area with substrate ENVYFQS” value was determined as 0.0578.
